# Results: the supplement of paper PMC8728848
# Some of the results follow.
# B1: PX9896A-bth-573-26-573 (Bacteroides thetaiotaomicron) (protein)
# chain: ETNNLKTKEDMYKYFGTSKSMLTHVYSYMPQGYQLFATSGGIFTEDRYSMRDCASDDGEFGAYADNIQNTNNGNWSPIKTYDDSWTLYRGIRAANSFIAEIAQVDFTRYEHDGQYTNWMKQLKYFPYEARVLRAHYFFELARRYGDIAMPLEVLTEEEANTIGKTPFSEVISFIVSECDDAANNLPDSYVNEPGAEIGRVTKGFAMAVKSKALLYAASKLHNPSMDTELWKKSAKAAIDIINTGLYSLDPQESANNLDSKEVVLMRINGDDSDFEMFNLPLRMTAGTRTSSLIPYSNYPSQNLVDAFETVNGYKVTLENTGWVCEDPAFDPQSPYENRDKRFYRAILANGMSFKDYTIETFKGGADDGIVSQGGSPTGYFLRKYIQEATSFEPGKEAVSKHHWVIYRYAETLLTYAESMVNAFNDVNYTDETYKYSALWAINEVRKNADMPLIPSMGKDEFMERLYNEWRVEFAFEDHRFWDVRRWKIADTTQRELYGVKIEKQADGTFNFYKNLYETRNWRDCMYLYPIPQSELYKNTNLNPQNTGW
# Columns and labels:
# Experiment in all cases: glycan array binding signal (z-score within array); higher = stronger binding
# Settings in all cases: glycan notation: IUPAC condensed, linker removed
# [1] = target: Gal(b1-3)GlcNAc(b1-2)Man(a1-3)[Gal(b1-3)GlcNAc(b1-2)Man(a1-6)]Man(b1-4)GlcNAc(b1-4)[Fuc(a1-6)]GlcNAc
# In short: (§1)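 From the Consortium for Functional Glycomics database, 3228 arrays were curated, keeping only those whose protein sequence was available. Binding is given as a within-array Z-score averaged across arrays sharing a protein sequence and across linkers. Negative Z-scores can be read as non-binding.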
# [2] = target: Gal(b1-3)GlcNAc(b1-2)Man(a1-3)[GlcNAc(b1-4)][Gal(b1-3)GlcNAc(b1-2)Man(a1-6)]Man(b1-4)GlcNAc(b1-4)GlcNAc
# In short: as §1
# [3] = target: Gal(b1-3)GlcNAc(b1-2)[Gal(b1-3)GlcNAc(b1-6)]Man(a1-6)[Gal(b1-3)GlcNAc(b1-2)Man(a1-3)]Man(b1-4)GlcNAc(b1-4)GlcNAc
# In short: as §1
# [4] = target: Gal(b1-3)GlcNAc(b1-3)Gal(b1-3)GlcNAc
# In short: as §1
# [5] = target: Gal(b1-3)GlcNAc(b1-3)Gal(b1-4)Glc
# In short: as §1
# [6] = target: Gal(b1-3)GlcNAc(b1-3)Gal(b1-4)GlcNAc
# In short: as §1
# [7] = target: Gal(b1-3)GlcNAc(b1-3)Gal(b1-4)GlcNAc(b1-2)Man(a1-3)[Gal(b1-3)GlcNAc(b1-3)Gal(b1-4)GlcNAc(b1-2)Man(a1-6)]Man(b1-4)GlcNAc(b1-4)GlcNAc
# In short: as §1
# [8] = target: Gal(b1-3)GlcNAc(b1-3)Gal(b1-4)GlcNAc(b1-2)[Gal(b1-3)GlcNAc(b1-3)Gal(b1-4)GlcNAc(b1-6)]Man(a1-6)[Gal(b1-3)GlcNAc(b1-3)Gal(b1-4)GlcNAc(b1-2)Man(a1-3)]Man(b1-4)GlcNAc(b1-4)[Fuc(a1-6)]GlcNAc
# In short: as §1
# [9] = target: Gal(b1-3)GlcNAc(b1-3)Gal(b1-4)GlcNAc(b1-3)Gal(b1-4)GlcNAc(b1-2)[Gal(b1-3)GlcNAc(b1-3)Gal(b1-4)GlcNAc(b1-3)Gal(b1-4)GlcNAc(b1-6)]Man(a1-6)[Gal(b1-3)GlcNAc(b1-3)Gal(b1-4)GlcNAc(b1-3)Gal(b1-4)GlcNAc(b1-2)Man(a1-3)]Man(b1-4)GlcNAc(b1-4)[Fuc(a1-6)]GlcNAc
# In short: as §1
# [10] = target: Gal(b1-3)GlcNAc(b1-3)Gal(b1-4)GlcNAc(b1-6)[Gal(b1-3)GlcNAc(b1-3)]Gal(b1-4)Glc
# In short: as §1
# [11] = target: Gal(b1-3)GlcNAc(b1-3)Gal(b1-4)[Fuc(a1-3)]GlcNAc
# In short: as §1
# [12] = target: Gal(b1-3)GlcNAc(b1-3)Gal(b1-4)[Fuc(a1-3)]GlcNAc(b1-6)[Gal(b1-3)GlcNAc(b1-3)]Gal(b1-4)Glc
# In short: as §1
# [13] = target: Gal(b1-3)GlcNAc(b1-3)GalNAc
# In short: as §1
# [14] = target: Gal(b1-3)GlcNAc(b1-6)Gal(b1-4)GlcNAc
# In short: as §1
# [15] = target: Gal(b1-3)GlcNAc(b1-6)GalNAc
# In short: as §1
# [16] = target: Gal(b1-3)GlcNAc(b1-6)[Gal(b1-3)]GalNAc
# In short: as §1
# [17] = target: Gal(b1-3)GlcNAc6S
# In short: as §1
# [18] = target: Gal(b1-3)[Fuc(a1-4)]GlcNAc
# In short: as §1
# [19] = target: Gal(b1-3)[Fuc(a1-4)]GlcNAc(b1-2)Man
# In short: as §1
# [20] = target: Gal(b1-3)[Fuc(a1-4)]GlcNAc(b1-2)Man(a1-3)[Gal(b1-3)[Fuc(a1-4)]GlcNAc(b1-2)Man(a1-6)]Man(b1-4)GlcNAc(b1-4)[Fuc(a1-6)]GlcNAc
# In short: as §1
# [21] = target: Gal(b1-3)[Fuc(a1-4)]GlcNAc(b1-3)Gal(b1-3)[Fuc(a1-4)]GlcNAc
# In short: as §1
# [22] = target: Gal(b1-3)[Fuc(a1-4)]GlcNAc(b1-3)Gal(b1-4)[Fuc(a1-3)]GlcNAc
# In short: as §1
# [23] = target: Gal(b1-3)[Fuc(a1-4)]GlcNAc(b1-6)GalNAc
# In short: as §1
# [24] = target: Gal(b1-3)[GlcNAc(b1-6)]GalNAc
# In short: as §1
# [25] = target: Gal(b1-3)[Neu5Ac(a2-6)]GalNAc
# In short: as §1
# [26] = target: Gal(b1-3)[Neu5Ac(a2-6)]GlcNAc(b1-4)Gal(b1-4)Glc
# In short: as §1
# [27] = target: Gal(b1-3)[Neu5Ac(b2-6)]GalNAc
# In short: as §1
# [28] = target: Gal(b1-4)Gal
# In short: as §1
# [29] = target: Gal(b1-4)GalNAc(a1-3)[Fuc(a1-2)]Gal(b1-4)GlcNAc
# In short: as §1
# [30] = target: Gal(b1-4)GalNAc(b1-3)[Fuc(a1-2)]Gal(b1-4)GlcNAc
# In short: as §1
binder,measurement,setting,value
B1,glycan array binding signal (z-score),[1],0.143
same,glycan array binding signal (z-score),[2],2.06
same,glycan array binding signal (z-score),[3],-0.293
same,glycan array binding signal (z-score),[4],0.195
same,glycan array binding signal (z-score),[5],-0.989
same,glycan array binding signal (z-score),[6],-0.276
same,glycan array binding signal (z-score),[7],0.372
same,glycan array binding signal (z-score),[8],3.52
same,glycan array binding signal (z-score),[9],0.294
same,glycan array binding signal (z-score),[10],0.153
same,glycan array binding signal (z-score),[11],0.079
same,glycan array binding signal (z-score),[12],0.476
same,glycan array binding signal (z-score),[13],-0.802
same,glycan array binding signal (z-score),[14],-0.322
same,glycan array binding signal (z-score),[15],-0.076
same,glycan array binding signal (z-score),[16],0.949
same,glycan array binding signal (z-score),[17],-0.292
same,glycan array binding signal (z-score),[18],-0.432
same,glycan array binding signal (z-score),[19],-0.522
same,glycan array binding signal (z-score),[20],0.005
same,glycan array binding signal (z-score),[21],0.01
same,glycan array binding signal (z-score),[22],-0.328
same,glycan array binding signal (z-score),[23],-0.38
same,glycan array binding signal (z-score),[24],-0.554
same,glycan array binding signal (z-score),[25],-0.756
same,glycan array binding signal (z-score),[26],-0.406
same,glycan array binding signal (z-score),[27],-0.266
same,glycan array binding signal (z-score),[28],-0.038
same,glycan array binding signal (z-score),[29],-1.02
same,glycan array binding signal (z-score),[30],-0.814
